The source of these data is FireProtDB (doi:10.1016/j.bpc.2007.12.006).

The conditions of this data set: Gallus gallus, pH 2, CD, KCl-HCl 0.1 M, reversible: Yes.

As for “Lysozyme C wild type (sequence left out)”, the unfolding free energy (25 °C, Urea) was 4.19 kcal/mol. Also, under “Thermal”, the “heat capacity change of unfolding” value amounted to 2.71 kcal/mol/K.
